The source gives no read counts; variants with many changes may rest on few reads.
B1: LINE1-mini (parent)
chain: GGCAGAGCUCAACACAGCGUGGCAAAGUGGCUGUGGCUAGACUGCC

Variants of: B1
Test: self-cleavage, relative activity (ratio to wild type); higher = more cleavage; in vitro, sequencing; the parent is a self-cleaving ribozyme

Row | Variant | self-cleavage
1 | C15U U38A C45A | 0.4
2 | A16C C18U G19U C31U | 0.01
3 | A16C G17U C31U C46U | 0.04
4 | G17A U32C G36U A39G C45A | 0.03
5 | C15U G22U G36A C42U C45U | 0.12
6 | C15U G35A A39C A41U | 0.01
7 | A16G G22A C46U | 0.09
8 | C15U U32G C46A | 0.2
9 | A16U C31A C45U | 0.03
10 | A16U C31A C45A | 0.26
11 | C15U U32G C37U C42A | 0.05
12 | G17A U34C A39C C42G | 0
13 | A16U U43A G44A C45A | 0.12
14 | A16U C23A C31A U32A | 1.6
15 | G17A G22C A24C G27U G40A C46U | 0.03
16 | G17A G19A U20G C46U | 0.02
17 | C15U U32G A41U | 0
18 | A16U G36A C45G | 0.1
19 | A16C C23G U32A C42A | 0.09
20 | A16C G21A A24G C46A | 0.01
21 | C15U G21U A25G U43C | 0.02
22 | A16U G27U U28C C42G G44A | 0.03
23 | C15U G17C C18A G30C G40C C45U | 0.01
24 | A16C A24C U34A | 0.01

Row | Variant | self-cleavage
25 | A16G A26C C31A U32C G35A A39G C45A C46U | 0.01
26 | A16C G19C C31A C42A | 0.03
27 | A16U A26C C46U | 0.04
28 | C15U U28A U32C U34C G35A | 0.09
29 | A16C G17C U28G G40A | 0.03
30 | C15U G22U G27U C46U | 1.9
31 | G17A A24U G30C C31A | 0.11
32 | G17A G36C C45G | 0.02
33 | A16C G35U A39G | 0.07
34 | A16U U20G G22A A24C G27A G40C | 0.28
35 | C15U G21U G27C C31A G40C | 0.01
36 | A16U A24U C31U C37U A39C | 0.06
37 | G17A A26C G36A | 0.11
38 | G17A U32C A39C | 0.01
39 | A16C G19U G35C | 0.04
40 | A16C G17A A25G G40U | 0.04
41 | A16C G22C U32G | 0.27
42 | A16G G19C U20A G44U | 0.01
43 | C15U G19C G22C G30U | 0.06
44 | G17A C31U U43A | 0.02
45 | A16U C23A C42A | 0.05
46 | C15U G17U U20G G30A | 0.02
47 | C15U G35U C37G C42A | 0.05
48 | A16G G35U A41U | 0.04

Row | Variant | self-cleavage
49 | A16U G17U U28G G40U | 0.06
50 | A16U C18U G29U G36A G40U | 0.04
51 | A16U G29A C45U | 0.79
52 | A16C C18G G21A G29U | 0.11
53 | A16U A26G G33U U34A | 0.08
54 | A16G G22A C37G | 0.02
55 | C15U G22C C23A U28G C37A | 0.08
56 | A16G A25C A26G | 0.01
57 | G17A A24C G29U C31A | 0.01
58 | A16G A26U G30A | 0.4
59 | A16C U20A G21A G33U U34G | 0.01
60 | A16G G21U G30U | 0.35
61 | A16G G21U G30C | 0.7
62 | C15U G19U U34C C42A | 0.04
63 | G17C A26U G29U | 0.13
64 | A16U G35C C46G | 0.04
65 | G17A G27C G44U | 0.02
66 | A16C U34G A41C G44U | 0.01
67 | G17A C23U A24U A39C | 0
68 | A16G C18U U32A A41U C42A | 0.03
69 | G17A U20A C23U G35U G44C | 0.04
70 | C15U G27A G30C | 0.12
71 | G17A A25G C37G | 0.02
72 | C15U G33U C42U | 0.16

Row | Variant | self-cleavage
73 | A16G G33A G35C G44U | 0.03
74 | G17C C18A G22U A41C | 0.02
75 | A16U G29A U38G | 0.02
76 | A16U G22C C37G U38A | 0.14
77 | G17A C31A U32G A41C C46G | 0.01
78 | C15U U34C G35U | 0.16
79 | G17A G21U G22C A24C | 0.33
80 | A16C G17A A26G G36A | 0.01
81 | G17A U38A A39C C42A G44C | 0.01
82 | G17C C18A G19U | 0.09
83 | A16G C31U G35A C37U G40C | 0
84 | G17A U38A G40A | 0.15
85 | G17A G19C G44U | 0.09
86 | C15U G21A C23A | 1.41
87 | A16G G29C G40U A41U | 0.21
88 | A16U C23G G27A C45A | 0.01
89 | G17C A24U U28A U34C | 0.06
90 | A16G G19A C31A G33U | 0.02
91 | A16C U34A A41U | 0
92 | C15U G35U C42G | 0.08
93 | G17A G30A U34G | 0.01
94 | G17A C18A G21U | 0.1
95 | A16C C23A A25G A26C C37U | 0.01
96 | A16C U38C C42A | 0.01

Row | Variant | self-cleavage
97 | C15U G17U G27U G44U | 0.05
98 | G17A G36U A41U | 0.07
99 | G17A A26G C42A | 0.03
100 | A16G A39U U43C | 0.04
101 | C15U U32A G33U C37A C45G | 0.05
102 | C15U G21U C46A | 0.85
103 | A16G C23G C37U | 0.02
104 | A16U G29C G30U | 0.18
105 | A16C C23A G30A U43A | 0.07
106 | A16C C31A A41C | 0.04
107 | A16C G21C C31U G35C A39G | 0.01
108 | A16U C18A U32G | 0.14
109 | G17A G30C G36U | 0.04
110 | A16C U20C C37G | 0.03
111 | C15U G22U C37A G40A | 0.01
112 | C15U G21U G22A A25G G36C | 0.03
113 | G17A A24G C45G | 0.02
114 | G17A G30U G44A | 0.06
115 | A16G C18A U34G G35C | 0.04
116 | G17A A24C G29A U34G G36U C45A | 0.02
117 | G17A C18U G29C A39C | 0.05
118 | A16U U20C A25G | 0.09
119 | A16U C42A C45U | 0.03
120 | G17A A26U A39G | 0.03

Row | Variant | self-cleavage
121 | A16C U28G G35U | 0.01
122 | A16C A26C G29C A39G | 0.03
123 | G17A G35A G44U | 0.02
124 | A16G U20G C37G | 0.01
125 | A16U G17C C18U G29A U43C | 0.07
126 | G17A C23G A24G C42A | 0.01
127 | G17A G27U C42A | 0.08
128 | G17A G36C G44A | 0.03
129 | G17C A24C C31A | 0.03
130 | A16C G17C G44C | 0.04
131 | A16C G33C C37G | 0.01
132 | G17A C23G A24C C46A | 0.03
133 | A16U G22C C42U | 0.06
134 | G17A U34A U38G | 0
135 | G17A G35U A41C C45U | 0.02
136 | A16U G21U G22U C42G | 0.02
137 | G17A C37A A41C C46A | 0.02
138 | A16G A25C G30A | 0.03
139 | G17A G19A G33A | 0.07
140 | A16G C23U A26C C37A | 0.12
141 | A16U G17U G29A U38A | 0.41
142 | A16G G33A C37A | 0.03
143 | A16U G27U C31A G35C | 0.03
144 | C15U G22A C23U C31G C37U | 0.05

Row | Variant | self-cleavage
145 | A16C U20C A25C G36A C37G C45A | 0.01
146 | A16G U43C C46U | 0.01
147 | C15U G22U C31G C37G | 0.4
148 | G17A U20G G36C | 0.02
149 | C15U G21U U34G | 0.05
150 | G17A C18A G22A A26C | 0.18
151 | G17A C37A C42A | 0.01
152 | A16C A26C C42U C45A | 0.06
153 | G17A G36A A39C | 0.05
154 | C15U G21A G27U G33U | 1.01
155 | A16C C18G G22A | 0.03
156 | A16C U34G G35A C37U | 0
157 | A16G A26G G36U | 0.08
158 | C15U U43C G44U | 0.02
159 | C15U U38A A41U | 0.27
160 | G17A C18U G29A C45U | 0.06
161 | C15U G21C G22U C42G | 0.37
162 | C15U G29A U38G | 0.05
163 | C15U G17U G27A C31A | 0.86
164 | A16C A25C U28G | 0.04
165 | G17A G19U C23A A41G G44U | 0.01
166 | A16U C23G C46G | 0.06
167 | A16U C37A A41U | 0.01

Reference: the RNAGym collection of RNA variant scans (doi:10.7554/elife.90254)
